# The list shows a part of the results.
# Key:
# Experiment in all cases: glycan array binding signal (z-score within array); higher = stronger binding
# Conditions in all cases: glycan notation: IUPAC condensed, linker removed
# [1] = target: Neu5Ac(a2-3)Gal6S(b1-4)[Fuc(a1-3)]GlcNAc
# Summary of the method: (§1)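 The Consortium for Functional Glycomics database supplied 3228 glycan arrays, of which those lacking an available protein sequence were dropped. The binding signal, a within-array Z-score, was averaged across arrays of the same protein sequence and across linkers. Negative scores can be read as non-binding.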
# Neu5Ac(a2-3)GalNAc = target: Neu5Ac(a2-3)GalNAc
# Summary of the method: as §1
# [2] = target: Neu5Ac(a2-3)GalNAc(b1-4)GlcNAc
# Summary of the method: as §1
# [3] = target: Neu5Ac(a2-3)[GalNAc(b1-4)]Gal(b1-4)Glc
# Summary of the method: as §1
# [4] = target: Neu5Ac(a2-3)[GalNAc(b1-4)]Gal(b1-4)GlcNAc
# Summary of the method: as §1
# [5] = target: Neu5Ac(a2-3)[GalNAc(b1-4)]Gal(b1-4)GlcNAc(b1-3)GalNAc
# Summary of the method: as §1
# [6] = target: Neu5Ac(a2-3)[Neu5Ac(a2-6)]GalNAc
# Summary of the method: as §1
# Neu5Ac(a2-6)Gal = target: Neu5Ac(a2-6)Gal
# Summary of the method: as §1
# [7] = target: Neu5Ac(a2-6)Gal(b1-3)GlcNAc(b1-3)[Gal(b1-4)GlcNAc(b1-6)]Gal(b1-4)Glc
# Summary of the method: as §1
# Neu5Ac(a2-6)Gal(b1-4)Glc = target: Neu5Ac(a2-6)Gal(b1-4)Glc
# Summary of the method: as §1
# [8] = target: Neu5Ac(a2-6)Gal(b1-4)GlcNAc
# Summary of the method: as §1
# [9] = target: Neu5Ac(a2-6)Gal(b1-4)GlcNAc(b1-2)Man
# Summary of the method: as §1
# [10] = target: Neu5Ac(a2-6)Gal(b1-4)GlcNAc(b1-2)Man(a1-3)Man(b1-4)GlcNAc(b1-4)GlcNAc
# Summary of the method: as §1
# [11] = target: Neu5Ac(a2-6)Gal(b1-4)GlcNAc(b1-2)Man(a1-3)[Gal(b1-4)GlcNAc(b1-2)Man(a1-6)]Man(b1-4)GlcNAc(b1-4)GlcNAc
# Summary of the method: as §1
# [12] = target: Neu5Ac(a2-6)Gal(b1-4)GlcNAc(b1-2)Man(a1-3)[GlcNAc(b1-2)Man(a1-6)]Man(b1-4)GlcNAc(b1-4)GlcNAc
# Summary of the method: as §1
# [13] = target: Neu5Ac(a2-6)Gal(b1-4)GlcNAc(b1-2)Man(a1-3)[GlcNAc(b1-4)][Neu5Ac(a2-6)Gal(b1-4)GlcNAc(b1-2)Man(a1-6)]Man(b1-4)GlcNAc(b1-4)GlcNAc
# Summary of the method: as §1
# [14] = target: Neu5Ac(a2-6)Gal(b1-4)GlcNAc(b1-2)Man(a1-3)[Man(a1-6)]Man(b1-4)GlcNAc(b1-4)GlcNAc
# Summary of the method: as §1
# [15] = target: Neu5Ac(a2-6)Gal(b1-4)GlcNAc(b1-2)Man(a1-3)[Neu5Ac(a2-3)Gal(b1-4)GlcNAc(b1-2)Man(a1-6)]Man(b1-4)GlcNAc(b1-4)GlcNAc
# Summary of the method: as §1
# [16] = target: Neu5Ac(a2-6)Gal(b1-4)GlcNAc(b1-2)Man(a1-3)[Neu5Ac(a2-6)Gal(b1-4)GlcNAc(b1-2)Man(a1-6)]Man(b1-4)GlcNAc(b1-4)GlcNAc
# Summary of the method: as §1
# [17] = target: Neu5Ac(a2-6)Gal(b1-4)GlcNAc(b1-2)Man(a1-3)[Neu5Ac(a2-6)Gal(b1-4)GlcNAc(b1-2)Man(a1-6)]Man(b1-4)GlcNAc(b1-4)[Fuc(a1-6)]GlcNAc
# Summary of the method: as §1
# [18] = target: Neu5Ac(a2-6)Gal(b1-4)GlcNAc(b1-2)Man(a1-6)Man(b1-4)GlcNAc(b1-4)GlcNAc
# Summary of the method: as §1
# [19] = target: Neu5Ac(a2-6)Gal(b1-4)GlcNAc(b1-2)Man(a1-6)[Gal(b1-4)GlcNAc(b1-2)Man(a1-3)]Man(b1-4)GlcNAc(b1-4)GlcNAc
# Summary of the method: as §1
# [20] = target: Neu5Ac(a2-6)Gal(b1-4)GlcNAc(b1-2)Man(a1-6)[GlcNAc(b1-2)Man(a1-3)]Man(b1-4)GlcNAc(b1-4)GlcNAc
# Summary of the method: as §1
# [21] = target: Neu5Ac(a2-6)Gal(b1-4)GlcNAc(b1-2)Man(a1-6)[Man(a1-3)]Man(b1-4)GlcNAc(b1-4)GlcNAc
# Summary of the method: as §1
# [22] = target: Neu5Ac(a2-6)Gal(b1-4)GlcNAc(b1-2)[Neu5Ac(a2-6)Gal(b1-4)GlcNAc(b1-4)]Man(a1-3)[GlcNAc(b1-4)][Neu5Ac(a2-6)Gal(b1-4)GlcNAc(b1-2)[Neu5Ac(a2-6)Gal(b1-4)GlcNAc(b1-6)]Man(a1-6)]Man(b1-4)GlcNAc(b1-4)GlcNAc
# Summary of the method: as §1
# [23] = target: Neu5Ac(a2-6)Gal(b1-4)GlcNAc(b1-2)[Neu5Ac(a2-6)Gal(b1-4)GlcNAc(b1-4)]Man(a1-3)[GlcNAc(b1-4)][Neu5Ac(a2-6)Gal(b1-4)GlcNAc(b1-4)Man(a1-6)]Man(b1-4)GlcNAc(b1-4)GlcNAc
# Summary of the method: as §1
# [24] = target: Neu5Ac(a2-6)Gal(b1-4)GlcNAc(b1-2)[Neu5Ac(a2-6)Gal(b1-4)GlcNAc(b1-6)]Man(a1-6)[Neu5Ac(a2-6)Gal(b1-4)GlcNAc(b1-2)Man(a1-3)][GlcNAc(b1-4)]Man(b1-4)GlcNAc(b1-4)GlcNAc
# Summary of the method: as §1
# [25] = target: Neu5Ac(a2-6)Gal(b1-4)GlcNAc(b1-3)Gal(b1-3)GlcNAc
# Summary of the method: as §1
# [26] = target: Neu5Ac(a2-6)Gal(b1-4)GlcNAc(b1-3)Gal(b1-4)GlcNAc
# Summary of the method: as §1
# [27] = target: Neu5Ac(a2-6)Gal(b1-4)GlcNAc(b1-3)Gal(b1-4)GlcNAc(b1-2)Man(a1-3)[Neu5Ac(a2-6)Gal(b1-4)GlcNAc(b1-3)Gal(b1-4)GlcNAc(b1-2)Man(a1-6)]GalNAc
# Summary of the method: as §1
# [28] = target: Neu5Ac(a2-6)Gal(b1-4)GlcNAc(b1-3)Gal(b1-4)GlcNAc(b1-3)Gal(b1-4)GlcNAc
# Summary of the method: as §1
# [29] = target: Neu5Ac(a2-6)Gal(b1-4)GlcNAc(b1-3)Gal(b1-4)GlcNAc(b1-3)Gal(b1-4)GlcNAc(b1-2)Man(a1-3)[Neu5Ac(a2-6)Gal(b1-4)GlcNAc(b1-3)Gal(b1-4)GlcNAc(b1-3)Gal(b1-4)GlcNAc(b1-2)Man(a1-6)]GalNAc
# Summary of the method: as §1
# [30] = target: Neu5Ac(a2-6)Gal(b1-4)GlcNAc(b1-3)Gal(b1-4)GlcNAc(b1-3)GalNAc
# Summary of the method: as §1
# [31] = target: Neu5Ac(a2-6)Gal(b1-4)GlcNAc(b1-3)Gal(b1-4)GlcNAc(b1-3)[Neu5Ac(a2-6)Gal(b1-4)GlcNAc(b1-3)Gal(b1-4)GlcNAc(b1-6)]GalNAc
# Summary of the method: as §1
# [32] = target: Neu5Ac(a2-6)Gal(b1-4)GlcNAc(b1-3)Gal(b1-4)GlcNAc(b1-6)[Gal(b1-3)]GalNAc
# Summary of the method: as §1
# [33] = target: Neu5Ac(a2-6)Gal(b1-4)GlcNAc(b1-3)Gal(b1-4)[Fuc(a1-3)]GlcNAc(b1-3)Gal(b1-4)[Fuc(a1-3)]GlcNAc
# Summary of the method: as §1
# [34] = target: Neu5Ac(a2-6)Gal(b1-4)GlcNAc(b1-3)GalNAc
# Summary of the method: as §1
# [35] = target: Neu5Ac(a2-6)Gal(b1-4)GlcNAc(b1-3)[Neu5Ac(a2-6)Gal(b1-4)GlcNAc(b1-6)]GalNAc
# Summary of the method: as §1
# [36] = target: Neu5Ac(a2-6)Gal(b1-4)GlcNAc(b1-6)GalNAc
# Summary of the method: as §1
# [37] = target: Neu5Ac(a2-6)Gal(b1-4)GlcNAc(b1-6)[Gal(b1-3)GlcNAc(b1-3)]Gal(b1-4)Glc
# Summary of the method: as §1
# [38] = target: Neu5Ac(a2-6)Gal(b1-4)GlcNAc(b1-6)[Gal(b1-3)]GalNAc
# Summary of the method: as §1
# [39] = target: Neu5Ac(a2-6)Gal(b1-4)GlcNAc6S
# Summary of the method: as §1
# Neu5Ac(a2-6)GalNAc = target: Neu5Ac(a2-6)GalNAc
# Summary of the method: as §1
# [40] = target: Neu5Ac(a2-6)GalNAc(b1-4)GlcNAc
# Summary of the method: as §1
# [41] = target: Neu5Ac(a2-6)GalNAc(b1-4)GlcNAc6S
# Summary of the method: as §1
binder,measurement,setting,value
CTAEGIKKFEGDGYELFKDNFPAGEKFDNDDTNDQFYTVIF [MUB40 (Lactobacillus reuteri)],glycan array binding signal (z-score),[1],0.706
same,glycan array binding signal (z-score),Neu5Ac(a2-3)GalNAc,-0.447
same,glycan array binding signal (z-score),[2],-0.323
same,glycan array binding signal (z-score),[3],-0.479
same,glycan array binding signal (z-score),[4],0.061
same,glycan array binding signal (z-score),[5],1.71
same,glycan array binding signal (z-score),[6],1.33
same,glycan array binding signal (z-score),Neu5Ac(a2-6)Gal,0.078
same,glycan array binding signal (z-score),[7],0.395
same,glycan array binding signal (z-score),Neu5Ac(a2-6)Gal(b1-4)Glc,-0.496
same,glycan array binding signal (z-score),[8],-0.246
same,glycan array binding signal (z-score),[9],-0.266
same,glycan array binding signal (z-score),[10],-0.774
same,glycan array binding signal (z-score),[11],0.082
same,glycan array binding signal (z-score),[12],-0.291
same,glycan array binding signal (z-score),[13],-0.443
same,glycan array binding signal (z-score),[14],0.634
same,glycan array binding signal (z-score),[15],1.59
same,glycan array binding signal (z-score),[16],1.95
same,glycan array binding signal (z-score),[17],-0.176
same,glycan array binding signal (z-score),[18],-0.414
same,glycan array binding signal (z-score),[19],0.438
same,glycan array binding signal (z-score),[20],1.1
same,glycan array binding signal (z-score),[21],-0.413
same,glycan array binding signal (z-score),[22],0.5
same,glycan array binding signal (z-score),[23],-0.219
same,glycan array binding signal (z-score),[24],-0.381
same,glycan array binding signal (z-score),[25],-0.175
same,glycan array binding signal (z-score),[26],0.931
same,glycan array binding signal (z-score),[27],0.015
same,glycan array binding signal (z-score),[28],1.56
same,glycan array binding signal (z-score),[29],0.292
same,glycan array binding signal (z-score),[30],3.03
same,glycan array binding signal (z-score),[31],-0.339
same,glycan array binding signal (z-score),[32],-0.408
same,glycan array binding signal (z-score),[33],1.24
same,glycan array binding signal (z-score),[34],1.14
same,glycan array binding signal (z-score),[35],-0.239
same,glycan array binding signal (z-score),[36],-0.552
same,glycan array binding signal (z-score),[37],-0.114
same,glycan array binding signal (z-score),[38],-0.414
same,glycan array binding signal (z-score),[39],-0.004
same,glycan array binding signal (z-score),Neu5Ac(a2-6)GalNAc,-0.329
same,glycan array binding signal (z-score),[40],0.275
same,glycan array binding signal (z-score),[41],2.71

# Source: the supplement of paper PMC8728848
